# According to PubChem BioAssay AID504832 (National Center for Advancing Translational Sciences (NCATS), 2011):
# Hit rate of the full screen: of about 310,000 compounds, about 18,000 (5.8%) were called active. The shares of active, inactive and inconclusive entries below differ from those in the screen. Calls follow the shape of the dose curve; as a rule, active = well fitted inhibition curve with a large enough effect; inconclusive = small, poorly fitted or top-dose-only effect, or another doubt; inactive = no such curve, though single readings can be large or run the other way. Potencies of inconclusive entries are left out as doubtful fits.
# Test: Primary qHTS for delayed death inhibitors of the malarial parasite plastid, 48 hour incubation
# Conditions: P. falciparum luciferase growth in erythrocytes; series mostly up to 28.7 µM; activity change, negative = inhibition: at the top concentration
# In short: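 Cell-based growth assay: transgenic P. falciparum expressing firefly luciferase, cultured in red cells within RPMI 1640 containing 0.5% w/v Albumax, 24 mM bicarbonate and gentamycin. A drop in luciferase activity indicates inhibition.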
# % is scaled to controls: 0 for no effect and ±100 for the full control effect; potency is read from the fitted curve at half-maximal effect; tags tell the direction and shape of the fitted curve.
Structure (SMILES),Potency,"activity change, negative = inhibition"
COC(=O)c1sc2ccccc2c1-n1cccc1C(=O)C(=O)Nc1ccc(OC)cc1,"inconclusive [inhibitor, full curve]",–
COc1ccc(CN2CCNC(=O)C2CC(=O)NC2CCCC2)c(OC)c1 (stereo not drawn),"inconclusive [inhibitor, single point]",–
COc1ccc(C(=O)N/C(=C\c2ccc3c(c2)OCO3)C(=O)Nc2cccc(C(=O)O)c2)cc1,–,inactive: -2.87%
O=C(N/N=C/c1ccccc1OC(F)F)c1cc(-c2ccncc2)nc2ccccc12,"inconclusive [inhibitor, partial curve, poor fit]",–
CCCN(CCC)CCNC(=O)C1CC(=O)N(c2ccc(OC)cc2)C1c1ccc(OC)cc1 (stereo not drawn),"inconclusive [inhibitor, single point]",–
O=C(CCN1C(=O)/C(=C/c2ccc(F)cc2)SC1=S)Nc1cccnc1,–,inactive: 8.44%
NNc1nc2ccccc2c(=O)n1Cc1ccccc1,–,inactive: 59.3%
CCCC(=O)N1CCN(c2ccc(NC(=O)c3sc4ccccc4c3Cl)cc2)CC1,"inconclusive [inhibitor, full curve, poor fit]",–
O=C(/C=C/Nc1ccccc1Oc1ccccc1)c1ccco1,active: 10.4 µM,–
Cc1ccccc1-n1c(C)cc(/C=N/NC(=O)c2ccncc2)c1C,"inconclusive [inhibitor, full curve, poor fit]",–
O=C1c2ccccc2C(=O)N1CCCCN(C(=O)c1ccco1)c1ccc(Cl)cc1,"inconclusive [inhibitor, single point]",–
Cc1ccc(NC(=O)Cn2nnc(C(=O)NCc3cccs3)c2N)cc1F,–,inactive: 40.1%
O=C(Cn1nnc2ccccc2c1=O)Nc1cc(C(F)(F)F)ccc1N1CCOCC1,"inconclusive [inhibitor, single point]",–
CCc1noc(C)c1C(=O)N1CCN(S(=O)(=O)c2ccccc2C(F)(F)F)CC1,"inconclusive [inhibitor, single point]",–
O=C(Nc1ccc2ccccc2c1)c1cn(-c2ccccc2)nc1-c1cccs1,"inconclusive [inhibitor, single point]",–
Cn1cccc1CC(=O)NNC(=O)Nc1cccc(Cl)c1,–,inactive: 9.45%
CC(c1nnc(Sc2nnnn2-c2ccccc2)n1-c1ccc(F)cc1)N(C)C (stereo not drawn),–,inactive: 3.47%
Cc1ccc(C(=O)Nc2cccc(C(F)(F)F)c2)cc1Nc1cnccn1,"inconclusive [inhibitor, single point]",–
CC(C)Cn1c(=O)c(C(=O)Nc2cnccn2)c(O)c2ccccc21,–,inactive: 5.36%
NC(=O)C1CCN(c2nc(C3CC3)nc3c2nnn3Cc2ccccc2Cl)CC1,"inconclusive [inhibitor, full curve, poor fit]",–
COc1cc(/C=N/n2cnnc2-n2nc(C)cc2C)cc([N+](=O)[O-])c1O,–,inactive: 8.54%
Cc1ccc(NC(=S)N2CCC(NC(=O)c3cccc(F)c3)CC2)cc1,"inconclusive [inhibitor, partial curve, poor fit]",–
CCCCCOc1ccc(C2C(C(C)=O)=C(C)Nc3ncnn32)cc1OC (stereo not drawn),"inconclusive [inhibitor, partial curve]",–
CC(=O)Cc1nsc(NC(=O)c2ccc(-c3ccc(F)cc3)o2)n1,–,inactive: 1.9%
O=C(CCSCc1cccc(Cl)c1)NCCc1ccccc1,–,inactive: 26.3%

Structure (SMILES),Potency,"activity change, negative = inhibition"
Cc1cccc(/C=N/NC(=O)c2ccc(NC(=O)c3cccc(Cl)c3)cc2)n1,"inconclusive [inhibitor, single point]",–
COc1ccccc1Nc1ncccc1[N+](=O)[O-],"inconclusive [inhibitor, single point]",–
O=C(CCNS(=O)(=O)c1ccccc1C(F)(F)F)NCCCSc1ccccc1,"inconclusive [inhibitor, single point]",–
O=C(NCc1ccco1)c1ccc(Cl)nc1,"inconclusive [inhibitor, full curve]",–
CCN(C(=O)c1cc2c(=O)[nH]c3ccc(C)cc3c2s1)c1ccc(OC)cc1,"inconclusive [inhibitor, partial curve, poor fit]",–
C=CCN1C(=O)C2(OCCO2)c2cc(C)ccc21,–,inactive: 11.3% [at 0.00184 µM]
Cc1ccc(N(CC(=O)N/N=C/c2cc(C)n(-c3ccccc3C)c2C)S(C)(=O)=O)cc1,"inconclusive [inhibitor, partial curve, poor fit]",–
COc1ccc(C)cc1NC(=O)c1sc2ncnc(N3CCN(c4ccccn4)CC3)c2c1C,"inconclusive [inhibitor, single point]",–
O=C1NCC(O)=C1C=Nc1ccccc1O,active: 10.4 µM,–
CC(C)(C)C(=O)Nc1ccccc1C(=O)Nc1ccccn1,–,inactive: -21.4%
CCCN(CC(=O)Nc1ccccc1OC)C(=O)c1ccc2c(c1)NC(=O)C(C)S2 (stereo not drawn),active: 10.4 µM,–
O=C(NCCC1=CCCCC1)C1CCC(CNc2nc(=S)[nH]c3ccccc23)CC1 (stereo not drawn),"inconclusive [inhibitor, single point]",–
CCOC(=O)N1CCN(Cc2cc(=O)oc3ccc4ccccc4c23)CC1,"inconclusive [inhibitor, single point]",–
CCOc1ccc(C(=O)OC2CCCN(C)C2)cc1 (stereo not drawn),–,inactive: -6.1%
COc1ccc(CNS(=O)(=O)c2ccc(S(=O)(=O)NC3CC3)cc2)cc1,–,inactive: 7.36%
Cc1nn(-c2ccccc2)c2nc(-c3ccccc3)cc(C(=O)N3CCOCC3)c12,–,inactive: -18.9%
O=C(NCCNc1ccc2ccccc2c1)c1cccn2c(=O)c3sccc3nc12,"inconclusive [inhibitor, partial curve, poor fit]",–
CCOc1ccc(S(=O)(=O)Nc2ccc(C(=O)NCc3ccncc3)cc2)cc1,"inconclusive [inhibitor, partial curve]",–
O=C1CCC(C(=O)O)N1 (stereo not drawn),–,inactive: 26.1%
Cc1nc(NC(=O)c2ccccc2)sc1-c1csc(N)n1,active: 1.85 µM,–
COC(=O)CCCC(=O)N1CCC(n2nccc2NC(=O)CCOc2ccccc2)CC1,–,inactive: 23.7%
CC(C)C[C@@H](C(=O)O)N(Cc1cccc(CN([C@@H](CC(C)C)C(=O)O)S(C)(=O)=O)c1)S(C)(=O)=O,–,inactive: 47.9%
COc1ccc(/C=N/Nc2cc(=O)n(C)c(=O)n2C)cc1OC,"inconclusive [inhibitor, single point]",–
COc1ccc(CNC(=O)C(c2ccc(C)o2)N(C(=O)c2csnn2)c2ccc(C(C)C)cc2)cc1 (stereo not drawn),"inconclusive [inhibitor, partial curve]",–
O=C(O)c1ccc(Oc2ccc(C(F)(F)F)cn2)cc1,–,inactive: -4.06%

Structure (SMILES),Potency,"activity change, negative = inhibition"
Cc1ccc[n+](CC(=O)c2ccc(NC(=O)c3ccccc3)cc2)c1,"inconclusive [inhibitor, partial curve]",–
CC(N)Cc1c[nH]c2c1ccc1ccccc12 (stereo not drawn),"inconclusive [inhibitor, single point]",–
COc1ccc(-c2coc3cc(OC)cc(O)c3c2=O)cc1,–,inactive: 85.3%
CC(=O)Nc1ccc(S(=O)(=O)N2CCN(c3ccc([N+](=O)[O-])cc3)CC2)cc1,"inconclusive [inhibitor, partial curve, poor fit]",–
COc1ccc(C2/C(=C(/O)c3ccccc3)C(=O)C(=O)N2CO)cc1 (stereo not drawn),–,inactive: 4.6%
Cc1ccc(-n2c(=S)[nH]c3c(oc4ccccc43)c2=O)cc1C,–,inactive: 40.9%
CCOCCCNC(=O)c1cn(C)c2ccc(S(=O)(=O)N3CCCC3)cc2c1=O,–,inactive: -27.1%
C[C@@H]1CC=C[C@H]2[C@H]1C(=O)N(Cc1ccccc1)[C@H]2c1ccc(C(F)(F)F)cc1,"inconclusive [inhibitor, partial curve, poor fit]",–
NC(=O)CSc1oc(-c2ccco2)nc1S(=O)(=O)c1ccccc1,"inconclusive [inhibitor, single point]",–
O=C(COc1ccccc1N1C(=O)C2C3C=CC(C3)C2C1=O)c1ccccc1 (stereo not drawn),–,inactive: 3.57%
CN1CCc2c(OCC(=O)N3CCCc4ccccc43)cccc2C1=O,–,inactive: -0.313%
CCc1cc(-c2n[nH]c(C)c2-c2ccccc2Cl)c(O)cc1OC,"inconclusive [inhibitor, partial curve, poor fit]",–
COc1ccc2[nH]c(=O)c(C(c3nnnn3C3CCCC3)N(C)C3CCCCC3)cc2c1 (stereo not drawn),–,inactive: 13.5%
O=C(NC1CCCCC1)C(c1ccco1)N(Cc1cccs1)C(=O)Cn1nnc2ccccc21 (stereo not drawn),"inconclusive [inhibitor, partial curve, poor fit]",–
O=C(NC(=S)NCCc1ccccc1)c1ccco1,–,inactive: 21.6%
CCOC(=O)c1c(NC(=O)CN(C)C2CCN(C)CC2)sc(C(=O)Nc2ccccc2)c1C,"inconclusive [inhibitor, single point]",–
CCSC(SCC)[C@H](O)[C@@H](O)[C@H](O)[C@H](O)CO,–,inactive: 10.4%
COc1ccc(N(CC(O)Cn2c(C)nc3ccccc32)S(=O)(=O)c2ccccc2)cc1 (stereo not drawn),"inconclusive [inhibitor, single point]",–
O=C(CSc1nnc(CNC(=O)c2ccco2)o1)Nc1cccc(Cl)c1,–,inactive: 14.5%
Cn1nccc1C(=O)N1CCCC(C(=O)c2ccc(C(F)(F)F)cc2)C1 (stereo not drawn),–,inactive: 28.3%
Cc1c(NC(=O)CCc2ccccc2)cccc1[N+](=O)[O-],–,inactive: 11.1%
Cc1oc(-c2ccc3c(c2)OCCO3)cc1C(=O)O,"inconclusive [inhibitor, partial curve, poor fit]",–
Cc1ccc2c(=O)cc(C(=O)NC3CCS(=O)(=O)C3)oc2c1C (stereo not drawn),–,inactive: 10.4%
